# Assay results from PubChem BioAssay AID504466 (National Center for Advancing Translational Sciences (NCATS), 2011).
# The whole screen tested about 330,000 compounds, of which about 4,200 (1.3%) were called active. Inconclusive results, whose numbers are uncertain, are shown with a selection of clear calls. Calls follow the shape of the dose curve; as a rule, active = well fitted activation curve with a large enough effect; inconclusive = small, poorly fitted or top-dose-only effect; inactive = no such curve, though single readings can be large or run the other way. Potencies beside an inconclusive call are fits to weak or partial responses and may not hold up.
# Experiment: qHTS screen for small molecules that induce genotoxicity in human embryonic kidney (HEK293T) cells expressing luciferase-tagged ELG1; also: nearly all actives have a fitted effect of over 60% in size
# Conditions: HEK293T ELG1-luciferase reporter, luminescence, 16 h; series mostly up to 46 µM
# Summary of the method: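 Reporter readout depends on ELG1 protein level, which increases with genetic stress. After 16 hr compound exposure at 37 °C, luciferase activity was quantified using ONE-Glo.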
# Potency is read from the fitted curve at half-maximal effect; tags tell the direction and shape of the fitted curve.
row,Structure (SMILES),Potency
1,CCc1cc(=O)oc2cc(O[C@@H]3O[C@H](CO)[C@@H](O)[C@H](O)[C@H]3O)c(Cl)cc12,inactive
2,Cn1c(-c2ncc(F)cc2F)cc2onc(-c3c(F)cccc3Cl)c2c1=O,"inconclusive: 4.61 µM [activator, full curve]"
3,N#Cc1nc(Nc2cccc(Cl)c2)c2ncn(C3CCCC3)c2n1,"inconclusive: 1.83 µM [activator, full curve]"
4,O=C(Nc1ccc(Oc2ncnc3cc(Cl)ccc23)nc1)c1cccs1,"inconclusive: 18.3 µM [activator, partial curve, poor fit]"
5,c1ccc(Nc2nc3ccccc3[nH]2)nc1,"inconclusive: 11.2 µM [activator, partial curve, poor fit]"
6,C=CCN(C(=O)CCC(=O)O)C1CC(=O)N(c2ccc(OC)cc2)C1=O (stereo not given),inactive
7,Cc1ccc(NC(=O)Nc2cccc(F)c2)nc1,"inconclusive: 3.26 µM [activator, partial curve, poor fit]"
8,O=C(CCSc1ccccc1)Nc1nc2c(s1)COc1ccccc1-2,"inconclusive: 18.4 µM [activator, partial curve, poor fit]"
9,CCN1C(=O)/C(=C\N2CCCCCC2)SC1=S,"inconclusive: 4.61 µM [activator, single point]"
10,COc1cc(CNCCCCO)ccc1OCc1ccccc1F,"inconclusive: 18.3 µM [activator, partial curve, poor fit]"
11,O=C(Nc1nnc(SCc2ccccc2)s1)c1ccco1,"inconclusive: 16.4 µM [activator, partial curve, poor fit]"
12,CCC(Sc1nnc2c3ccccc3n(CC)c2n1)C(=O)Nc1sc2c(c1C#N)CCCC2 (stereo not given),"inconclusive: 16.4 µM [activator, partial curve, poor fit]"
13,O=C(Nc1ccc2c(c1)CCC2)Nc1ccc2c(c1)OCO2,"inconclusive: 16.4 µM [activator, partial curve]"
14,CNc1ncnc(Sc2ccc(Cl)cc2)c1[N+](=O)[O-],inactive
15,COc1cccc(NC(=O)CCS(=O)(=O)c2cccs2)c1,"inconclusive: 20.6 µM [activator, partial curve, poor fit]"
16,CC(=O)c1ccc(-c2ccc(C(=O)N3CCC(C(N)=O)CC3)o2)cc1,"inconclusive: 7.3 µM [activator, single point]"
17,CCC(=O)N1CCCc2cc(S(=O)(=O)N3CCCc4ccccc43)ccc21,"inconclusive: 25.9 µM [activator, partial curve, poor fit]"
18,CCOc1ccc(S(=O)(=O)NCCC(=O)N(C)Cc2cccs2)cc1,inactive
19,CC1(C)CC(=O)C=C(NNC(=O)c2ccccc2O)C1,inactive
20,O=C(c1cccs1)N1CCn2c1nc1ccccc12,"inconclusive: 14.6 µM [activator, partial curve, poor fit]"
21,COc1ccccc1CNC(=O)CN1C(=O)c2cccc(N)c2C1=O,"inconclusive: 16.4 µM [activator, single point]"
22,COc1ccc(/C=C2\OC(=O)c3c(OC)cccc32)cc1OC,"inconclusive: 5.8 µM [activator, full curve]"
23,Fc1ccccc1/C=N/Nc1ccc(Cl)nn1,"inconclusive: 11.6 µM [activator, partial curve, poor fit]"
24,CC(C)(C)c1ccc(OCc2ccc(C(=O)NCc3cccnc3)o2)cc1,"inconclusive: 2.91 µM [activator, full curve, poor fit]"

row,Structure (SMILES),Potency
1,O=C(CSCc1ccccc1)N1CCc2ccccc21,active: 2.59 µM
2,O=C(Nc1nccs1)c1ccc(COc2c(F)c(F)cc(F)c2F)cc1,"inconclusive: 23.1 µM [activator, partial curve, poor fit]"
3,Cc1ccc(-c2noc(-c3ccccc3C(=O)N3CCCC3)n2)cc1,"inconclusive: 9.2 µM [activator, partial curve]"
4,O=C(CCCCCNC(=O)c1ccccc1)N/N=C/c1ccccc1O,"inconclusive: 29.1 µM [activator, partial curve, poor fit]"
5,CS(=O)(=O)Nc1ccc(C(=O)NCCc2ccccc2)cc1,"inconclusive: 10 µM [activator, partial curve, poor fit]"
6,CCCCOC(=O)c1ccc(NC(=O)CSc2nncn2C)cc1,"inconclusive: 29.1 µM [activator, partial curve, poor fit]"
7,Cc1cccc(Oc2cc([N+](=O)[O-])cc3c2C(=O)Nc2ccccc2O3)c1,"inconclusive: 29.1 µM [activator, partial curve, poor fit]"
8,C/[N+]([O-])=C/c1c(OCc2ccccc2)ccc2ccccc12,"inconclusive: 29.1 µM [activator, partial curve, poor fit]"
9,CC(C)C(=O)Nc1nnc(-c2ccco2)s1,inactive
10,N#Cc1c2c(nc(N)c1-c1ccccc1)CCCCC2,"inconclusive: 23.1 µM [activator, partial curve, poor fit]"
11,O=C(COC(=O)c1ccccc1)c1ccc2c(c1)OCCO2,"inconclusive: 13 µM [activator, partial curve]"
12,COc1ccc(NC(=O)c2ccc(-c3ccccc3Cl)o2)cc1,"inconclusive: 20.6 µM [activator, single point]"
13,CCCCc1ccc(NC(=O)CSc2nc(=O)n(CCCN3CCOCC3)c3c2CCC3)cc1,inactive
14,O=C(Nc1ccc(Br)cc1)c1ccc2ncsc2c1,active: 1.64 µM
15,CC(C)=CCN1CCN(Cc2cnc(C)s2)CC1CCO (stereo not given),"inconclusive: 3.26 µM [activator, full curve, poor fit]"
16,CC(C)(C)C(=O)CSc1nc2ccccc2o1,"inconclusive: 16.4 µM [activator, partial curve]"
17,COc1cccc(C(=O)Nc2ccc(C3CC3(Cl)Cl)cc2)c1 (stereo not given),"inconclusive: 2.06 µM [activator, full curve, poor fit]"
18,COc1cccc(C(=O)Nc2cccc(C(C)=O)c2)c1,"inconclusive: 16.4 µM [activator, partial curve, poor fit]"
19,O=C(Nc1ccc(Cl)c(S(=O)(=O)N2CCOCC2)c1)c1cc2ccccc2oc1=O,"inconclusive: 5.8 µM [activator, partial curve, poor fit]"
20,Nc1ccc(-c2nc3ccc([N+](=O)[O-])cc3[nH]2)cc1,active: 3.66 µM
21,CC(C)OC(=O)CSc1nc2cc3c(cc2cc1C#N)OCO3,"inconclusive: 18.4 µM [activator, partial curve, poor fit]"
22,O=[N+]([O-])c1ccccc1/C=N/N1CCN(c2ccc(Cl)cc2)CC1,"inconclusive: 20.6 µM [activator, single point]"
23,O=C(c1ccccc1)c1cc([N+](=O)[O-])ccc1N1CCOCC1,"inconclusive: 18.4 µM [activator, partial curve, poor fit]"
24,c1ccc(C2CSc3ccccc3N2)cc1 (stereo not given),"inconclusive: 16.4 µM [activator, partial curve]"

row,Structure (SMILES),Potency
1,CCOc1ncccc1C(=O)OCc1ccc(C(=O)OC)cc1,"inconclusive: 32.6 µM [activator, partial curve, poor fit]"
2,O=C(O)c1ccc(N2CCOCC2)c(N2C(=O)C3C4C=CC(C4)C3C2=O)c1 (stereo not given),inactive
3,COc1ccc(NC2=Nc3ccccc3CC2)cc1,active: 4.47 µM
4,CCCCn1c(SCc2cccc([N+](=O)[O-])c2)nc2ccsc2c1=O,inactive
5,COc1ccccc1C1NC(=O)NC(C)=C1C(=O)OC1CCC(C)CC1 (stereo not given),inactive
6,Cc1c(Br)c(C(F)(F)F)nn1CC(=O)N(C)C1CCCCC1,inactive
7,Nc1nnc(SCC(=O)c2ccc3ccccc3c2)s1,active: 11.6 µM
8,O=C(OCC(=O)N1CCC(Cc2ccccc2)CC1)c1ccccc1O,inactive
9,O=C(Nc1cc(Cl)ccc1F)C1=COCCO1,"inconclusive: 25.9 µM [activator, single point]"
10,c1ccc2c(c1)Cn1nc(Cc3nc4c(s3)CCCC4)nc1-2,"inconclusive: 5.8 µM [activator, single point]"
11,COc1ccccc1CNC(=O)OCc1nccnc1C(=O)Nc1ccc(Br)cn1,inactive
12,O=C1CCCc2c1cc(-c1ccccc1)n2-c1ccc(O)cc1,"inconclusive: 18.4 µM [activator, partial curve, poor fit]"
13,COc1ccc(CCc2nnc(CCC(=O)NCc3cc(C(C)C)no3)o2)cc1,"inconclusive: 16.4 µM [activator, partial curve]"
14,c1ccc2[nH]c(-c3cscn3)nc2c1,"inconclusive: 23.1 µM [activator, single point]"
15,COc1ccc(CCNC(=O)c2cc(S(=O)(=O)N3CCCC3)cn2C)cc1OC,inactive
16,O=C1CSC2=NCN(c3ccc4c(c3)OCO4)CN12,"inconclusive: 20.6 µM [activator, partial curve, poor fit]"
17,CN(C)c1cccc(C(=O)NCC2CCCO2)c1 (stereo not given),"inconclusive: 23.1 µM [activator, single point]"
18,CCN1C(=O)/C(=C\C=C\c2ccccc2[N+](=O)[O-])SC1=S,inactive
19,COc1ccc(/C=C/C2=NC(=C\N(C)C)/C(=O)O2)cc1,"inconclusive: 20.6 µM [activator, partial curve, poor fit]"
20,O=C(NNC(=O)c1ccc2c(=O)n3c(nc2c1)CCC3)c1ccc(Cl)cc1,inactive
21,O=C(COc1ccccc1Cl)N1CCc2ccccc21,active: 9.2 µM
22,CCCNC(=O)CSCc1nc(-c2ccc(SC)cc2)oc1C,"inconclusive: 20.6 µM [activator, single point]"
